The shares of active, inactive and inconclusive entries below differ from those in the screen. For some of these results: Where the call is inconclusive, the potency comes from a doubtful curve fit. Active and inactive are the calls of the source. The call rests on the fitted dose curve; in most records, active means well fitted curve in the direction sought with a large enough effect; inconclusive means small, poorly fitted or top-dose-only effect, or another doubt; inactive means no such curve, though single readings can be large; an effect the other way counts as inactive or inconclusive.
Experiments:
[1] = Primary qHTS for inhibitors of nuclear receptor binding SET domain protein 2 (NSD2) in an RCH-ACV wild type WT cells (2C) (AID 1645877); settings: activity change, negative = cell killing: at 44.9 µM (top of the series) unless noted; further: nearly all actives have a fitted effect of over 70% in size
HaCat = assay: Cytotoxic Profiling of Annotated Libraries Using Quantitative High-Throughput Screening (AID 1296008); settings: Five cell lines viability, CellTiter-Glo ATP luminescence, 48-72 h; max response: hits give low values; further: nearly all actives have a fitted effect of over 60% in size; on max response: on the % scale 0 is the no-effect control and ±100 the full control effect
How it was run: (§1)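 Cytotoxicity was measured as CellTiter-Glo ATP luminescence, read after 10 min at room temperature. Compound treatment of the cells lasted 48 or 72 hr at 37 degrees Celsius in a qHTS format.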

NIH3T3 = assay: as above; settings: Five cell lines viability, CellTiter-Glo ATP luminescence, 48-72 h; max response: hits give low values
How it was run: as §1

C33A = assay: Primary qHTS to identify gynecologic anti-cancer compounds using libraries of approved drugs and bioactive compounds (AID 1345084); settings: Gynecologic cancer cell panel viability, ATPlite luminescence, 48 h; series mostly up to 57.5 µM; further: nearly all actives have a fitted effect of over 55% in size; on activity change, negative = cytotoxicity: on the % scale 0 is the no-effect control and ±100 the full control effect
How it was run: (§2)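 Cells, 1,000 per well, were allowed to settle for 16 h at 37 C before compound addition. Five concentrations were tested for 48 h, and viability was read by ATPlite luminescence after 15 min at room temperature.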

Es-2 = assay: as above; settings: Gynecologic cancer cell panel viability, ATPlite luminescence, 48 h; series mostly up to 57.5 µM
How it was run: as §2

PA-1 = assay: as above; settings: Gynecologic cancer cell panel viability, ATPlite luminescence, 48 h; series mostly up to 57.5 µM
How it was run: as §2

Tov112D = assay: as above; settings: Gynecologic cancer cell panel viability, ATPlite luminescence, 48 h; series mostly up to 57.5 µM
How it was run: as §2

[2] = Primary qHTS for inhibitors of nuclear receptor binding SET domain protein 2 (NSD2) in an isogenic RCH-ACV NSD2 p.E1099K mutant (9B) (AID 1645876); further: nearly all actives have a fitted effect of over 70% in size
[3] = Primary redox qHTS assay for identification of artifact compounds. (AID 1845223); settings: Amplex Red/HRP redox cycling with DTT, fluorescence; redox activity (% of DA3003): at 53.8 µM (top of the series)
How it was run: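 Amplex Red (25 uM) and HRP (250 mU/mL) in HBSS, with compounds for 15 min, then 250 uM DTT for 30 min, room temperature, dark. Fluorescence 525/598 nm read; normalized to DMSO and 10 uM DA3003; Hill fit.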

OV90 = assay: Primary qHTS to identify gynecologic anti-cancer compounds using libraries of approved drugs and bioactive compounds (AID 1345084); settings: Gynecologic cancer cell panel viability, ATPlite luminescence, 48 h; series mostly up to 57.5 µM; further: nearly all actives have a fitted effect of over 55% in size; on activity change, negative = cytotoxicity: on the % scale 0 is the no-effect control and ±100 the full control effect
How it was run: as §2

Tov-21-G = assay: as above; settings: Gynecologic cancer cell panel viability, ATPlite luminescence, 48 h; activity change, negative = cytotoxicity: at 57.5 µM (top of the series) unless noted
How it was run: as §2

[4] = P-glycoprotein substrates identified in KB-8-5-11 adenocarcinoma cell line, qHTS therapeutic library screen (AID 1346987); further: nearly all actives have a fitted effect of over 65% in size
How it was run: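 P-gp-mediated resistance screen: KB-8-5-11 cells treated 72 h with compounds in dose-response. CellTiter-Glo viability.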

CASKI = assay: Primary qHTS to identify gynecologic anti-cancer compounds using libraries of approved drugs and bioactive compounds (AID 1345084); settings: Gynecologic cancer cell panel viability, ATPlite luminescence, 48 h; series mostly up to 57.5 µM; further: nearly all actives have a fitted effect of over 55% in size; on activity change, negative = cytotoxicity: on the % scale 0 is the no-effect control and ±100 the full control effect
How it was run: as §2

SKOV3 = assay: as above; settings: Gynecologic cancer cell panel viability, ATPlite luminescence, 48 h; series mostly up to 57.5 µM
How it was run: as §2

CAOV3 = assay: as above; settings: Gynecologic cancer cell panel viability, ATPlite luminescence, 48 h; activity change, negative = cytotoxicity: at 57.5 µM (top of the series)
How it was run: as §2

Hek293T = assay: as above; settings: Gynecologic cancer cell panel viability, ATPlite luminescence, 48 h, control line for the selectivity index; activity change, negative = cytotoxicity: at 57.5 µM (top of the series) unless noted
How it was run: as §2

JEG-3 = assay: as above; settings: Gynecologic cancer cell panel viability, ATPlite luminescence, 48 h; series mostly up to 57.5 µM
How it was run: as §2

[5] = Primary fluorescence-based thiol-reactive (MSTI) qHTS assay for identification of artifact compounds. (AID 1845221);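 further: thiol-reactive compounds lower the probe fluorescence signal; nearly all actives have a fitted effect of over 65% in size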
How it was run: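 qHTS titration of compound; 4 uM MSTI, PBS pH 7.4, 2% DMSO; 1 h RT, dark; fluorescence 525/598 nm; normalized to Acetyl-MSTI and MSTI; 4-parameter Hill fit.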

HeLa = assay: Primary qHTS to identify gynecologic anti-cancer compounds using libraries of approved drugs and bioactive compounds (AID 1345084); settings: Gynecologic cancer cell panel viability, ATPlite luminescence, 48 h; activity change, negative = cytotoxicity: at 57.5 µM (top of the series); further: nearly all actives have a fitted effect of over 55% in size
How it was run: as §2
Potency means the concentration at half of the fitted maximal effect; tags describe the fitted curve by direction and shape.

NC(=O)c1cccc2cn(-c3ccc(C4CCCNC4)cc3)nc12 (configuration not stated)
inconclusive: Potency (HaCat) 29.1 µM [inhibitor, single point] | Potency (C33A) 8.91 µM [cytotoxic, partial curve, poor fit] | Potency (Es-2) 31.6 µM [cytotoxic, single point] | Potency (PA-1) 5.62 µM [cytotoxic, full curve, poor fit] | Potency (Tov112D) 14.1 µM [cytotoxic, partial curve]
inactive: max response (NIH3T3) -14%
active: Potency [1] 2.05 µM

C[C@@H]1O[C@@H](O[C@H]2[C@H](OC(=O)[C@]34CCC(C)(C)C[C@H]3C3=CCC5[C@@]6(C)CC[C@H](O[C@@H]7O[C@H](CO[C@@H]8OC[C@H](O)[C@H](O)[C@H]8O)[C@@H](O)[C@H](O)[C@H]7O)C(C)(C)C6CC[C@@]5(C)[C@]3(C)C[C@H]4O)OC[C@@H](O)[C@@H]2O)[C@H](O)[C@H](O)[C@H]1O[C@@H]1OC[C@H](O)[C@H](O[C@@H]2OC[C@@H](O)[C@H](O)[C@H]2O)[C@H]1O (some centres not stated)
inactive: max response (HaCat) -0.578% | outcome (NIH3T3) | activity change, negative = cytotoxicity (OV90) -10.8% [at 6.55 µM] | activity change, negative = cytotoxicity (Tov-21-G) -9.88% [at 6.55 µM]
inconclusive: Potency [2] 4.34 µM [inhibitor, single point] | Potency [1] 4.87 µM [inhibitor, single point] | Potency [3] 3.18 µM [activator, single point]

Cc1c(C(=O)NCCCO)cnn1-c1nc(-c2cccc(C(F)(F)F)c2)cs1
inconclusive: Potency [4] 29.1 µM [inhibitor, single point] | Potency (HaCat) 29.1 µM [inhibitor, single point] | Potency (NIH3T3) 20.6 µM [inhibitor, single point] | Potency (CASKI) 25.1 µM [cytotoxic, partial curve, poor fit] | Potency (SKOV3) 35.5 µM [cytotoxic, single point]

C=C1C(=O)OC2/C=C(\COC(C)=O)CC/C=C(\C=O)CC(OC(=O)C(C)CC)C12 (configuration not stated)
active: Potency (PA-1) 11.2 µM
inconclusive: Potency [4] 10 µM [inhibitor, single point] | Potency (HaCat) 14.2 µM [inhibitor, single point] | Potency (NIH3T3) 10 µM [inhibitor, single point] | Potency (C33A) 10 µM [cytotoxic, single point] | Potency (CAOV3) 12.6 µM [cytotoxic, single point] | Potency (Es-2) 14.1 µM [cytotoxic, single point] | Potency (Hek293T) 17.8 µM [cytotoxic, single point] | Potency (JEG-3) 6.31 µM [cytotoxic, partial curve, poor fit] | Potency (SKOV3) 12.6 µM [cytotoxic, single point] | Potency (Tov-21-G) 10 µM [cytotoxic, single point] | Potency (Tov112D) 10 µM [cytotoxic, single point]

C/C=C1\[C@H](O[C@@H]2O[C@H](CO)[C@@H](O)[C@H](O)[C@H]2O)OC=C(C(=O)OC)[C@H]1CC(=O)OC[C@H]1O[C@@H](OCCc2ccc(O)cc2)[C@H](O)[C@@H](O)[C@@H]1O
inconclusive: Potency [1] 6.08 µM [inhibitor, partial curve, poor fit]
active: Potency [5] 2.24 µM
inactive: max response (HaCat) -4.08% | max response (NIH3T3) -11.8% | Potency (OV90) | Potency (PA-1)

CC1(C)[C@@H](O)CC[C@]2(C)[C@H]3CC=C4[C@@H]5C[C@](C)(C(=O)O)CC[C@]5(C)CC[C@@]4(C)[C@]3(C)CC[C@@H]12
inactive: Potency [2] | max response (NIH3T3) 0.034% | Potency (Es-2) | Potency (SKOV3)
inconclusive: Potency (HaCat) 0.0184 µM [inhibitor, full curve, poor fit] | Potency (CAOV3) 5.62 µM [rising, single point]

N#C/C(=C1\Nc2ccccc2S1)c1ccnc(NCCc2cccnc2)n1
inconclusive: Potency [4] 20.6 µM [inhibitor, single point] | Potency [2] 3.65 µM [inhibitor, full curve] | Potency [1] 3.25 µM [inhibitor, full curve] | Potency (HaCat) 20.6 µM [inhibitor, single point] | Potency (NIH3T3) 29.1 µM [inhibitor, single point] | Potency (Es-2) 39.8 µM [cytotoxic, single point] | Potency (HeLa) 25.1 µM [cytotoxic, single point] | Potency (Hek293T) 39.8 µM [cytotoxic, single point] | Potency (PA-1) 39.8 µM [cytotoxic, single point] | Potency (SKOV3) 39.8 µM [cytotoxic, single point] | Potency (Tov-21-G) 25.1 µM [cytotoxic, single point]
inactive: Potency (C33A) | Potency (OV90)

C[C@@H]1C[C@H]2[C@@H]3CCC4=CC(=O)C=C[C@]4(C)[C@@]3(F)[C@@H](O)C[C@]2(C)[C@@]1(O)C(=O)COP(=O)(O)O
active: Potency [1] 0.0916 µM
inactive: Potency [2] | Potency (CASKI) | Potency (PA-1)
inconclusive: Potency (HaCat) 0.146 µM [inhibitor, full curve, poor fit] | Potency (NIH3T3) 6.51 µM [inhibitor, single point]

CC1CCCC(O)CC(=O)c2c(O)cc(O)cc2CC(=O)O1 (configuration not stated)
inconclusive: Potency [4] 12.8 µM [inhibitor, single point] | Potency [5] 9.27 µM [inhibitor, partial curve] | Potency (HaCat) 20.2 µM [inhibitor, single point] | Potency (NIH3T3) 16.1 µM [inhibitor, single point] | Potency (C33A) 12.6 µM [cytotoxic, single point] | Potency (CASKI) 28.2 µM [cytotoxic, single point] | Potency (Es-2) 25.1 µM [cytotoxic, single point] | Potency (HeLa) 28.2 µM [cytotoxic, single point] | Potency (Hek293T) 11.2 µM [cytotoxic, single point] | Potency (PA-1) 28.2 µM [cytotoxic, single point] | Potency (SKOV3) 28.2 µM [cytotoxic, single point] | Potency (Tov112D) 20 µM [cytotoxic, single point]

COc1c2c(c(C)c3c1C(=O)OC3)OC1(C)CC(O)C(C(C)(C)O)C(C)(CCC(=O)O)C1C2 (configuration not stated)
inactive: max response (HaCat) -1.29% | max response (NIH3T3) 0.542%
inconclusive: Potency [5] 4.62 µM [inhibitor, partial curve, poor fit]

CCCCOC(=O)NC(=O)C1c2ccccc2Oc2ccccc21
inconclusive: Potency (HaCat) 29.1 µM [inhibitor, single point] | Potency (SKOV3) 28.2 µM [rising, single point]
inactive: Potency [2] | max response (NIH3T3) -5.65% | Potency (C33A)
